Results published in PubChem BioAssay AID1347073 (National Center for Advancing Translational Sciences (NCATS), 2019).
Hit rate of the full screen: of about 45,000 compounds, about 200 (0.44%) were called active. Not shown: some 7% with an inconclusive outcome. The call rests on the fitted dose curve; in most records, active means well fitted activation curve with a large enough effect; inconclusive means small, poorly fitted or top-dose-only effect; inactive means no such curve, though single readings can be large or run the other way. The list shows a part of the results.

assay: qHTS of TDP-43 Inhibitors: NCGC Sytravon Library Screen; details: yeast TDP-43 toxicity rescue, BacTiter-Glo growth, 24 h; series mostly up to 46.1 µM; growth rescue (activation): at the top concentration; further: 0% is about no effect; nearly all actives have a fitted effect of over 55% in size
In short: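 TDP-43-expressing yeast, pregrown in raffinose, seeded at OD600 0.02 in galactose medium with compound for 24 hr at 30 deg C. Growth read by BacTiter-Glo luminescence, so rescue of toxicity appears as activation.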

Row | SMILES | growth rescue (activation)
1 | O=C(Nc1ccc([N+](=O)[O-])cc1)c1ccc(S(=O)(=O)N2CCCC2)cc1 | inactive: 5.84%
2 | Cc1ccc(CN(C)CC(=O)Nc2cccc([N+](=O)[O-])c2)o1 | inactive: -11.7%
3 | Cc1ccc(-c2nc(C)sc2CC(=O)OCC(=O)Nc2c(F)cccc2F)cc1 | inactive: 12.4%
4 | Cn1nc(C(C)(C)C)cc1NC(=O)C1(C)CCN1C(=O)c1ccccc1CCc1ccccc1 (stereo not given) | inactive: 23.9%
5 | CC(OC(=O)C(C)N1C(=O)C2C3C=CC(C4CC34)C2C1=O)C(=O)c1ccccc1 (stereo not given) | inactive: 28.8%
6 | O=C(Nc1ccc(O)cc1C(=O)O)c1cccs1 | inactive: -10.8%
7 | CC(NC(=O)C1c2ccccc2Oc2ccccc21)C1CCCO1 (stereo not given) | inactive: 8.85%
8 | COc1cccc(OC)c1OCCCCn1cnc2ccccc2c1=O | inactive: 18.2%
9 | CC(C)NC(=O)C1Cc2c(-c3ccccc3Oc3ccccc3)ccnc2O1 (stereo not given) | inactive: 6.4%
10 | C=CCN(c1ccccc1OC)S(=O)(=O)c1cccc(C(=O)OC2CCOC2=O)c1 (stereo not given) | inactive: 5.98%
11 | Cc1cc(C(=O)Nn2c(C)nc3ccccc3c2=O)ccc1[N+](=O)[O-] | inactive: 7.89%
12 | Nn1cc(-c2ccccc2)nc1SCC(=O)Nc1ccc2c(c1)OCO2 | inactive: 28.1%
13 | Cc1sc2ncnc(NCc3cccnc3)c2c1C | inactive: 6.35%
14 | CCCCOC(=O)c1ccc(NC(=O)c2c(Cl)ccc(Cl)c2OC)cc1 | inactive: 25.4%
15 | Cc1ccc(C)c(OC2=NS(=O)(=O)c3ccccc32)c1 | inactive: -1.16%
16 | COc1ccc(NC(=O)COC(=O)CC2CCCC2)cc1 | inactive: -1.98%
17 | CC(CCc1ccccc1)NC(=O)CCc1cn(C)c2ccccc12 (stereo not given) | inactive: 8.62%
18 | COc1ccc(CNC(=O)COC(=O)/C=C/c2cccc(Cl)c2)cc1 | inactive: 14.9%
19 | O=Cc1sc(=O)n(Cc2cccc(C(=O)O)c2)c1Cl | inactive: -4.15%
20 | O=C(CCn1nnc2ccccc21)OCC(=O)c1ccc([N+](=O)[O-])cc1 | inactive: 1.97%
21 | O=C(COc1ccc(Br)cc1CNC1CCCC1)Nc1ccccc1 | inactive: -3.93%
22 | COc1ccc(N2C(=O)CC(Sc3nnnn3-c3ccc(F)cc3)C2=O)cc1 (stereo not given) | inactive: 20.5%
23 | CCCCNC(=O)N(O)C1N(/N=C/c2ccccc2O)C(=S)SC1(C)C (stereo not given) | inactive: 13.7%
24 | Cc1cnc(C(=O)OCC(=O)Nc2cccc(C)c2C)cn1 | inactive: 13.4%

Row | SMILES | growth rescue (activation)
25 | CCOC(=O)C(=CNc1cccc(C)n1)C(=O)OCC | inactive: 23%
26 | CC(=O)Nc1ccccc1OC(C)C(=O)N1CC(C)CC(C)C1 (stereo not given) | inactive: 1.94%
27 | COc1ccc(S(=O)(=O)N(C)c2ccc(C(=O)N3CCC(C(N)=O)CC3)cc2)cc1OC | inactive: -14.9%
28 | CCCCC(=O)Nc1ccc2c(c1)nc(CCN1CCN(C)CC1)n2C | inactive: 5.83%
29 | CC(=O)Nc1cccc(-c2ccnc3c2CC(C)(C(=O)NCc2ccncc2)O3)c1 (stereo not given) | inactive: -0.606%
30 | C=CCn1c(C)csc1=Nc1ccc(C(=O)O)cc1 | inactive: 6.1%
31 | CN(C)c1nnnn1Cc1ccc(Cl)cc1Cl | inactive: 2.9%
32 | Cc1cc2oc(=O)cc(CN3CCN(S(=O)(=O)c4cccs4)CC3)c2cc1C(C)C | inactive: 7.29%
33 | Cc1ccc(C(=O)Nc2ccc(NC(=O)c3ccco3)c(C)c2)cc1 | inactive: 5.91%
34 | Cc1ccc(C(=O)N2c3ccccc3NC(=O)C2C)cc1 (stereo not given) | inactive: 3.94%
35 | Cc1cc(C)n2cc(CSc3ccc(Br)cc3)nc2n1 | inactive: 16%
36 | CN(Cc1nc2ccccc2s1)C(=O)c1ccc(F)cc1 | inactive: 0.189%
37 | Cc1cc(/C=N/NC(=O)C(=O)NCc2ccccn2)c(C)n1-c1cccc(Br)c1 | inactive: 22%
38 | COc1ccc(C(=O)c2ccc(OC)c(Br)c2)cc1Br | inactive: 25.4%
39 | CCCCN1C(=O)CC(Sc2ncccc2C(=O)O)C1=O (stereo not given) | inactive: 3.01%
40 | Cn1cc(-c2coc3c(C(=O)NCc4cccnc4)cccc23)cn1 | inactive: 7.29%
41 | COc1ccccc1-c1c(C)nn2c(N)c(-c3ccccc3)cnc12 | inactive: 19.8%
42 | Cc1ccc(S(=O)(=O)Nc2ccc3cn[nH]c3c2)cc1C | inactive: 2.92%
43 | Cc1ccc(CN(CC(=O)NCc2ccccn2)S(=O)(=O)c2ccccc2)cc1 | inactive: 2.61%
44 | O=C(O)CCc1nn2cc(-c3ccccc3)nc2[nH]c1=O | inactive: 4.2%
45 | CC(C)c1ccc(NC(=O)CCNC(=O)Cn2ccc3ccccc3c2=O)cc1 | inactive: 9.94%
46 | CCOc1cc(/C=C/C(=O)O)ccc1OCCOc1ccc(F)cc1 | inactive: 9.38%
47 | CCOCCCNC(=S)Nc1ccc2nc3n(c(=O)c2c1)CCCCC3 | inactive: 2.37%
48 | Oc1cccc(C(O)CNCc2ccc(OCc3ccc(Cl)cc3Cl)cc2)c1 (stereo not given) | inactive: 21.8%

Row | SMILES | growth rescue (activation)
49 | CCC(C)(C)NC(=O)C(c1ccc(O)cc1)N(CCOC)C(=O)CCC(=O)Nc1nccs1 (stereo not given) | inactive: 32.9%
50 | COc1cc(NC(=S)N2CCN(C/C=C/c3ccccc3)CC2)cc(OC)c1 | inactive: -5.49%
51 | CC(NC(=O)COC(=O)c1ccc(Br)o1)c1ccccc1 (stereo not given) | inactive: -3%
52 | CC(C)N1CCC(N2CCN(Cc3ccc4nsnc4c3)CC2CCO)CC1 (stereo not given) | inactive: -8.19%
53 | Cc1ccc(OCC(=O)Nc2cccc(S(=O)(=O)N3CCCCC3)c2)c([N+](=O)[O-])n1 | inactive: -16.7%
54 | CCC(=O)N(C)CCc1cc2c(c(OC)c1/C=N/NC(=O)[C@H]1C[C@@H]1c1ccccc1)OCO2 | inactive: -0.34%
55 | Cn1c(CC(=O)Nc2ccccc2)nnc1SCC(=O)NC1=NCCS1 | inactive: 5.45%
56 | COc1ccc(CN2C(=S)NC(C)(C)CC2(C)O)cc1 (stereo not given) | inactive: 2.56%
57 | O=C(/C=C/c1ccccc1[N+](=O)[O-])NCc1cccnc1 | inactive: 1.21%
58 | C/C(=N\Nc1nncc2ccccc12)c1ccc(OCC(=O)N(C)C)cc1 | inactive: 13.2%
59 | COC(=O)/C=c1\[nH]c2nnc(C)n2c1=O | inactive: 3.68%
60 | Cc1ccc(C(=O)NNC(=O)/C=C\C(=O)O)cc1 | inactive: 12.5%
61 | CCOc1ccc(S(=O)(=O)Nc2nc3ccccc3nc2Nc2ccc(N3CCOCC3)cc2)cc1 | inactive: 9.67%
62 | CC(C)COc1ccc(C(=O)Nc2scc(-c3ccc(Br)cc3)c2C(=O)OC(C)C)cc1 | inactive: -0.578%
63 | COc1ccccc1NC(=O)C(C)N(C)Cc1ccc(Cl)s1 (stereo not given) | inactive: 5.27%
64 | CC(C)Oc1ccc(S(=O)(=O)N2CCCCC2)cc1NC(=O)CN1C(=O)NC(C)(C2CC2)C1=O (stereo not given) | inactive: 22.3%
65 | CCOC(=O)c1c(NC(=O)CSc2ncnc3[nH]ncc23)sc2c1CCC(C)C2 (stereo not given) | inactive: -1.56%
66 | O=C(CSc1nnc2c(Cl)cc(Cl)cn12)N1CCN(c2ccc(F)cc2)CC1 | inactive: -21.6%
67 | CCSc1nc2sccc2c(=O)n1-c1ccccc1 | inactive: 24.7%
68 | Cc1cc(-c2n[nH]c(=S)n2/N=C/c2cccc(O)c2)n[nH]1 | inactive: -1.49%
69 | O=C(Nc1cccnc1Cl)c1ccc(=O)oc1 | inactive: -6.05%
70 | CSc1cccc(NC(=O)c2[nH]c(C)c(C(C)=O)c2C)c1 | inactive: -10.3%
